According to PubChem BioAssay AID686979 (National Center for Advancing Translational Sciences (NCATS), 2013):
The whole screen tested about 420,000 compounds, of which about 50,000 (12%) were called active. This list was built around the results that the source calls inconclusive (neither active nor inactive); the mix of calls is not that of the screen. Calls come from the whole dose curve; as a rule, active = well fitted inhibition curve with a large enough effect; inconclusive = small, poorly fitted or top-dose-only effect; inactive = flat fitted curve, though single readings scatter. Potencies of inconclusive entries are left out as doubtful fits.

Assay: qHTS for Inhibitors of human tyrosyl-DNA phosphodiesterase 1 (TDP1): qHTS in cells in presence of CPT; note: nearly all actives have a fitted effect of over 55% in size
Conditions: chicken DT40 Tdp1-/-;hTDP1 cells + 20 nM CPT, ATP luminescence, 48 h; activity change, negative = growth inhibition: at 46.2 µM (top of the series) unless noted
In short: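 Chicken DT40 Tdp1-/- cells stably complemented with human TDP1 were seeded at 400 cells/well in medium containing 20 nM camptothecin, exposed to pin-transferred compounds, and grown at 37 °C for at least 48 hr. Viability was read as ATP luminescence.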
% is set by controls: 0 for no effect and ±100 for the full control effect; potency is the fitted concentration of half-maximal effect; tags give direction and shape of the fitted curve.

SMILES	Potency	activity change, negative = growth inhibition
CCN(CC)c1ccc(/C=N/NC(=O)Cc2cccs2)c(O)c1	active: 4.61 µM	–
CC(=O)N1CCCc2cc(S(=O)(=O)NC(C(=O)NCc3ccc(C)cc3)C(C)C)ccc21 (stereo unspecified)	inconclusive [inhibitor, single point]	–
O=[N+]([O-])c1ccc(N2CCNCC2)cc1NCc1cccnc1	inactive	–
c1cc(CN2CCCCC2)cc(OCCCNc2nc3ccccc3s2)c1	active: 18.4 µM	–
COc1ccc(C(=O)Nc2cccc(NC(=O)c3cccs3)c2)cc1OC	active: 14.6 µM	–
O=C(c1ccc2c(c1)N(Cc1ccccc1F)C(=O)c1ccccc1S2=O)N1CCCCC1 (stereo unspecified)	inactive	–
COc1ccc(S(=O)(=O)N/N=C\c2ccc(OC)c(COc3ccc(C)cc3[N+](=O)[O-])c2)cc1	inconclusive [inhibitor, single point]	–
CCCCNC(=O)C1CCC(CNS(=O)(=O)c2c(C)cc(C)cc2C)CC1 (stereo unspecified)	inconclusive [inhibitor, single point]	–
COc1ccc(S(=O)(=O)N2CCCCC2)cc1NC(=O)CN(C)C1CCCCC1	inconclusive [inhibitor, single point]	–
O=C(O)Cn1cc(F)c(=O)[nH]c1=O	inactive	–
O=C(CCc1ccccc1)OCC(=O)c1ccc([N+](=O)[O-])cc1	inconclusive [inhibitor, single point]	–
O=C(NCc1ccccc1)c1cc(C2CCCCN2C(=O)CCCc2ccccc2)on1 (stereo unspecified)	inactive	–
O=C1c2ccccc2C(=O)N1CCCc1nc2ccccc2c(=O)n1-c1cccnc1	inactive	–
COc1ccccc1C(=O)Nc1ccccc1SCc1cc(=O)c2ccccc2[nH]1	inconclusive [inhibitor, single point]	–
O=C(N/N=C/C(Cl)=C\c1ccccc1)c1cccs1	inconclusive [inhibitor, partial curve]	–
CCOc1cc(CNCC(O)c2ccccc2)cc(Cl)c1OC (stereo unspecified)	inconclusive [inhibitor, partial curve]	–
Cc1ccc(NC(=O)COC(=O)C2COc3ccccc3O2)cc1 (stereo unspecified)	inactive	–
COc1ccc(OC)c(C(=O)/C=C/c2cccnc2)c1	inconclusive [inhibitor, single point]	–
Cc1onc(-c2ccccc2)c1C(=O)N/N=C/c1cn(C)c2ccccc12	inactive	–
O=C(NC1CC(=O)N(c2ccc(F)cc2)C1)C1CCCCC1 (stereo unspecified)	inactive	–
Cn1c(=O)c2[nH]c(-c3cccnc3)nc2n(C)c1=O	inconclusive [inhibitor, single point]	–
CC(C)C(=O)Nc1ccc(Nc2ccccc2)cc1	active: 11.6 µM	–
CN1CCc2nc3ccc(Cl)cc3c(-c3ccccc3Cl)c2C1	inconclusive [inhibitor, single point]	–
CCCCNC(=O)CNC(=S)N(Cc1ccccc1F)C1CCCCC1	inactive	–
CN(CC(=O)O)Cc1nc2ccccc2[nH]1	inactive	–
O=C(Nc1ccc2nn(-c3ccccc3)nc2c1)c1ccc2c(c1)OCO2	active: 16.4 µM	–

SMILES	Potency	activity change, negative = growth inhibition
CC(C)(C)OC(=O)C[C@H]1C/C=C\C[C@@H](CC(=O)N(CCO)Cc2ccccc2)C(=O)NC[C@H](c2ccccc2)OC1=O	active: 20.6 µM	–
COc1ccc(C2/C=C\CC(NC(=O)OCC3c4ccccc4-c4ccccc43)CC(=O)N2Cc2ccccc2F)cc1 (stereo unspecified)	inconclusive [inhibitor, single point]	–
COc1cc(C#N)c(NS(=O)(=O)c2ccc3[nH]c(=O)sc3c2)cc1OC	inactive	–
CCC(C)NS(=O)(=O)c1ccc(OC)c(Cl)c1Cl (stereo unspecified)	inactive	–
Cc1c(C(=O)NCc2ccccc2)sc(=O)n1Cc1ccccc1F	inconclusive [inhibitor, single point]	–
Cc1nn(CCN)c(C)c1Cl	inactive	–
CC1CCC2[C@](C)(CO)C(O)CC[C@]2(C)C12CCC(CO)(CCO)O2 (stereo partly specified)	inactive	–
O=C(NCc1ccccc1)c1cc2ccccc2o1	inconclusive [inhibitor, partial curve]	–
CC(=O)Nc1cccc(Oc2ncnc3scc(-c4ccccc4)c23)c1	inconclusive [inhibitor, partial curve]	–
O=c1c(-c2cccs2)nc2cnc(N3CCNCC3)nc2n1C1CC1	inconclusive [inhibitor, single point]	–
c1ccc2c(c1)ncn2Cc1nnc2sc(-c3ccc4c(c3)OCO4)nn12	inconclusive [inhibitor, single point]	–
O=C(NCCCc1ccccc1)C1CCC(=O)N(CCc2ccc(Cl)cc2)C1 (stereo unspecified)	inconclusive [inhibitor, single point]	–
COC(=O)C1=C(C)N=c2s/c(=C/c3cccs3)c(=O)n2C1c1ccc(F)cc1 (stereo unspecified)	inconclusive [inhibitor, single point]	–
O=C(c1ccc(Cl)c(S(=O)(=O)N2CCOCC2)c1)N(c1ccccn1)C1CCCCC1	inconclusive [inhibitor, single point]	–
O=C(CO/N=C/c1ccc(OC(F)F)cc1)NC1CCCCC1	inconclusive [inhibitor, partial curve, poor fit]	–
CC(=O)c1ccc(S(=O)(=O)Nc2ccc(Cl)c(S(=O)(=O)N3CCCC3)c2)cc1	inactive	–
COc1ccc(NC(=O)CSc2nnc(C)n2N)cc1S(=O)(=O)N1CCCCC1	inactive	–
O=c1c2c([N+](=O)[O-])cc([N+](=O)[O-])cc2sn1Cc1ccccc1	active: 5.17 µM	–
COC(=O)c1ccccc1NC(=O)c1ccccc1SC	inactive	–
COc1ccccc1NC(=O)CSc1nc2sc(C)c(C)c2c(=O)n1C	active: 20.6 µM	–
Brc1cccc(OCCN2CCc3ccccc3C2)c1	inconclusive [inhibitor, single point]	–
COc1cc(NC(=O)CSc2nc3c(c(=O)[nH]2)CCCC3)cc(OC)c1OC	inactive	–
CC(C)CCNC(=O)c1cccc(-n2cnc3cccnc32)c1	inconclusive [inhibitor, single point]	–
Cc1ccc(C)c(OCC(=O)Nc2nc3ccc([N+](=O)[O-])cc3s2)c1C	inconclusive [inhibitor, single point]	–
O=C(Cc1ccccc1[N+](=O)[O-])NCCSCc1c(F)cccc1Cl	inactive	–
CCC1CN(CCNC(=O)c2cc3ccccc3oc2=O)Cc2cc(OC)ccc2O1 (stereo unspecified)	–	inactive: 2.38% [at 9.04 µM]

SMILES	Potency	activity change, negative = growth inhibition
Cc1ccc(S(=O)(=O)N2CCCC(c3nc4c(nnn4Cc4ccc5c(c4)OCCO5)c(=O)[nH]3)C2)cc1 (stereo unspecified)	inconclusive [inhibitor, single point]	–
Cc1ccc(CSC2=NCCN2C(=O)c2ccc([N+](=O)[O-])cc2)cc1	inactive	–
COc1cc(/C=C/c2nc3ccccc3c(=O)[nH]2)cc(OC)c1OC	inactive	–
Cc1c(C(=O)OCC(=O)N(C)C2CCS(=O)(=O)C2)oc2ccc(Br)cc12 (stereo unspecified)	inconclusive [inhibitor, single point]	–
CCCN(C(=O)Cc1c(C(=O)O)[nH]c2ccc(Cl)cc12)c1ccc(OCC)cc1	inconclusive [inhibitor, single point]	–
O=C(CNC(=O)c1cccs1)N/N=C/c1ccc(O)cc1O	inconclusive [inhibitor, single point]	–
COc1cc2c(cc1OC)CN(CC(=O)Nc1ccc(F)cc1)C(C(=O)O)C2 (stereo unspecified)	inactive	–
COc1ccc(CCC(=O)Nc2ccccc2C(F)(F)F)cc1	inactive	–
CCCn1nc(NC(=O)c2cccs2)c2cc3cc(OC)ccc3nc21	active: 13 µM	–
Cc1oc(C(C)(C)C)cc1-c1cc(NC(=O)c2ccc([N+](=O)[O-])cc2)n[nH]1	inconclusive [inhibitor, single point]	–
COc1cccc(CNC(=O)Cn2c(SCC(=O)Nc3ccc(F)cc3)nc3ccccc32)c1	inconclusive [inhibitor, single point]	–
Cc1nn(-c2ccc(F)cc2)c(C)c1CNC(=O)c1ccc(-n2cc(NC(=O)c3ccoc3)cn2)cc1	–	inactive: -15.1% [at 9.04 µM]
COc1ccc(CCC(=O)NCc2nc3cccnc3n2Cc2ccc(C)cc2)cc1	inconclusive [inhibitor, single point]	–
CC(C)(C)c1nc(SCC(=O)N2CC(=O)Nc3ccccc32)c2ccccc2n1	inactive	–
CCOc1ccc(/C=N/n2c(-c3ccccc3)n[nH]c2=S)cc1	inconclusive [inhibitor, single point]	–
CCOCCC(=O)Nc1ccc2c(c1)c(=O)n(C)n2CC=C(C)C	active: 5.17 µM	–
COc1ccc(C(=O)COC(=O)CNC(=O)c2cccs2)cc1Br	inactive	–
COc1ccc(OC)c(-c2csc(NC(=O)CSCc3c(C)noc3C)n2)c1	inconclusive [inhibitor, single point]	–
CCOC(=O)[C@]12CCCC=C1N(Cc1ccccc1)C(=O)[C@H](CC(=O)N1CCC(c3ccccc3)CC1)C2	active: 16.4 µM	–
CCOCCCNC(=O)c1[nH]c2cc(OC)ccc2c1Sc1ccccc1	inactive	–
O=C(CN(c1ccc(Cl)cc1)S(=O)(=O)c1ccccc1)N/N=C/c1ccco1	inactive	–
Cn1c(N)c(C(=O)CCl)c(=O)n(C)c1=O	active: 7.31 µM	–
Cc1cccc(-n2ccnc2SCC(=O)Nc2cc(C)on2)c1	inconclusive [inhibitor, single point]	–
CCN(CC)S(=O)(=O)c1cccc(-c2nnc(SCc3ncc(-c4ccccc4)o3)n2C)c1	inconclusive [inhibitor, single point]	–
